± gives the standard deviation. Only a part is listed here, and it is no random draw.
The sequences below were run on MIWI (PIWIL1) piRISC loaded with piRNA #1 (30 nt) (assay: pre-steady-state target cleavage rate (min^-1); MIWI and MILI are mouse PIWI proteins and EfPiwi is from a freshwater sponge; tags in brackets are library labels; higher = faster piRNA-guided slicing of the target). Conditions: guide: piRNA #1 5'p-UGAGGUAGUAGGUUGUAUAGUAUCCAGAGG; auxiliary factor: 500 nM mouse GTSF1.
How it was run: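 In Cleave-'n-Seq, a transcribed, DNA-blocked target RNA library (0.1 nM) was combined with 1 nM active affinity-purified piRISC bearing one synthetic guide, with or without 500 nM GTSF1 partner protein. Reactions ran in HEPES–potassium acetate buffer at 33 °C for 0–8 or 0–960 min. Uncleaved targets were sequenced and normalised to depth and to weakly complementary targets, three trials were pooled, and k3 was capped at 0.0001 min^-1. The pre-steady-state cleavage rate was obtained by fitting a burst-and-steady-state model.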

Row | Sequence | pre-steady-state target cleavage rate
1 | CCUCUGGAUACCAUACAACCUACUACCUCA | 1.09 ± 0.081
2 | GGAGACCUAACUAUACAUGCUACUACCUCA | 0.119 ± 0.021
3 | GGACUGGAUACUAUACAACCUACAUGCUCA | 0.00488 ± 0.0022
4 | GCUCUGGAUACUAUACAACCUACUAACUCA | 1.3 ± 0.085
5 | GGACUGGAGUACUAUACAACCUACUACCUCA | 1.42 ± 0.11
6 | GCUCUGGAUACUAUACAACCUACUAGGACA | 0.166 ± 0.04
7 | GGAGAGGAAACUAUACUACCUACUACCUCA | 1.09 ± 0.08
8 | GGAGACCAUACAAUACAACCUUCUACCUCA | 0.23 ± 0.032
9 | CCUCUGGAUACUAUACACACCUACUACCUCA | 0.0121 ± 0.006
10 | GGACUGGAUACUAUUCAACCUACUUCCUCA | 0.00677 ± 0.0021
11 | CCUCUGGAUACUAUACACCUACUACCUCA | 0.317 ± 0.036
12 | GGUCUGGAUACUAUACAACCUACUACACUCA | 0.799 ± 0.14
13 | GGAGAGGAUACAUACAACCUACUACCUCA | 1.11 ± 0.085
14 | GGAGACCUAUCUAUACAACCUACUACCUA | 0.64 ± 0.049
15 | GGAGAGGAUACUUUACAACGUACUACCUCA | 0.182 ± 0.023
16 | GGAGUGGAUACUUUACAACCUACUACGUCA | 0.244 ± 0.031

Reference: the supplement of paper PMC10338343
